Measured values reported in publication PMC9911399, “Two distinct binding modes provide the RNA-binding protein RbFox with extraordinary sequence specificity”.
Substitutions are numbered along the chain they refer to; changes in the protein carry UniProt numbers. The list shows a part of the results.

T1: RBFOX1 RRM (Homo sapiens, UniProt Q9NWB1 109-208)
T1 sequence: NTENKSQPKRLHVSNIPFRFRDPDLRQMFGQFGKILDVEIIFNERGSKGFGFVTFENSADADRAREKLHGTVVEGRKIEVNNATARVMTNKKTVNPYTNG

B1: AGCCAGU (DNA:RNA)
RNA: GGGAGACCGGAAUUCAGAUUGUCCAGCCAGUUUAAAUCCCGUCGUAGCCACCA
DNA 1: CAATCTGAATTCCGGTCTCCC
DNA 2: TGGTGGCTACGACGGGATT
B2: UGGCCGC (DNA:RNA)
RNA: B1 RNA with A25U, C27G, A29C, U31C
DNA 1: CAATCTGAATTCCGGTCTCCC
DNA 2: TGGTGGCTACGACGGGATT
B3: AGGGCUC (DNA:RNA)
RNA: B1 RNA with C27G, C28G, A29C, G30U, U31C
DNA 1: CAATCTGAATTCCGGTCTCCC
DNA 2: TGGTGGCTACGACGGGATT
B4: CUCCUUU (DNA:RNA)
RNA: B1 RNA with A25C, G26U, A29U, G30U
DNA 1: CAATCTGAATTCCGGTCTCCC
DNA 2: TGGTGGCTACGACGGGATT
B5: UGGAAGU (DNA:RNA)
RNA: B1 RNA with A25U, C27G, C28A
DNA 1: CAATCTGAATTCCGGTCTCCC
DNA 2: TGGTGGCTACGACGGGATT
B6: UGUAUGG (DNA:RNA)
RNA: B1 RNA with A25U, C27U, C28A, A29U, U31G
DNA 1: CAATCTGAATTCCGGTCTCCC
DNA 2: TGGTGGCTACGACGGGATT
B7: CGUCGUG (DNA:RNA)
RNA: B1 RNA with A25C, C27U, A29G, G30U, U31G
DNA 1: CAATCTGAATTCCGGTCTCCC
DNA 2: TGGTGGCTACGACGGGATT
B8: GAUCGAG (DNA:RNA)
RNA: B1 RNA with A25G, G26A, C27U, A29G, G30A, U31G
DNA 1: CAATCTGAATTCCGGTCTCCC
DNA 2: TGGTGGCTACGACGGGATT
B9: AGUUUAA (DNA:RNA)
RNA: B1 RNA with C27U, C28U, A29U, G30A, U31A
DNA 1: CAATCTGAATTCCGGTCTCCC
DNA 2: TGGTGGCTACGACGGGATT
B10: CCGGAAU (DNA:RNA)
RNA: B1 RNA with A25C, G26C, C27G, C28G, G30A
DNA 1: CAATCTGAATTCCGGTCTCCC
DNA 2: TGGTGGCTACGACGGGATT
B11: AAAUUUA (DNA:RNA)
RNA: B1 RNA with G26A, C27A, C28U, A29U, G30U, U31A
DNA 1: CAATCTGAATTCCGGTCTCCC
DNA 2: TGGTGGCTACGACGGGATT
B12: UUUUUCA (DNA:RNA)
RNA: GGGAGACCGGAAUUCAGAUUGUCCUUUUUCAUUAAAUCCCGUCGUAGCCACCA
DNA 1: CAATCTGAATTCCGGTCTCCC
DNA 2: TGGTGGCTACGACGGGATT
B13: AAAGUAA (DNA:RNA)
RNA: B12 RNA with U25A, U26A, U27A, U28G, C30A
DNA 1: CAATCTGAATTCCGGTCTCCC
DNA 2: TGGTGGCTACGACGGGATT
B14: GAAUCUA (DNA:RNA)
RNA: B12 RNA with U25G, U26A, U27A, U29C, C30U
DNA 1: CAATCTGAATTCCGGTCTCCC
DNA 2: TGGTGGCTACGACGGGATT
B15: CUAAGGG (DNA:RNA)
RNA: B1 RNA with A25C, G26U, C27A, C28A, A29G, U31G
DNA 1: CAATCTGAATTCCGGTCTCCC
DNA 2: TGGTGGCTACGACGGGATT
B16: AACGAGG (DNA:RNA)
RNA: B1 RNA with G26A, C28G, U31G
DNA 1: CAATCTGAATTCCGGTCTCCC
DNA 2: TGGTGGCTACGACGGGATT
B17: GCCAAAA (DNA:RNA)
RNA: B1 RNA with A25G, G26C, C28A, G30A, U31A
DNA 1: CAATCTGAATTCCGGTCTCCC
DNA 2: TGGTGGCTACGACGGGATT
B18: GUAAGAC (DNA:RNA)
RNA: B12 RNA with U25G, U27A, U28A, U29G, C30A, A31C
DNA 1: CAATCTGAATTCCGGTCTCCC
DNA 2: TGGTGGCTACGACGGGATT
B19: UGGAAGG (DNA:RNA)
RNA: B1 RNA with A25U, C27G, C28A, U31G
DNA 1: CAATCTGAATTCCGGTCTCCC
DNA 2: TGGTGGCTACGACGGGATT
B20: CUCGACU (DNA:RNA)
RNA: B1 RNA with A25C, G26U, C28G, G30C
DNA 1: CAATCTGAATTCCGGTCTCCC
DNA 2: TGGTGGCTACGACGGGATT
B21: GUAAUAG (DNA:RNA)
RNA: B12 RNA with U25G, U27A, U28A, C30A, A31G
DNA 1: CAATCTGAATTCCGGTCTCCC
DNA 2: TGGTGGCTACGACGGGATT
B22: GAGGUCC (DNA:RNA)
RNA: B12 RNA with U25G, U26A, U27G, U28G, A31C
DNA 1: CAATCTGAATTCCGGTCTCCC
DNA 2: TGGTGGCTACGACGGGATT
B23: GGCGACG (DNA:RNA)
RNA: B1 RNA with A25G, C28G, G30C, U31G
DNA 1: CAATCTGAATTCCGGTCTCCC
DNA 2: TGGTGGCTACGACGGGATT
B24: GGCACCU (DNA:RNA)
RNA: B1 RNA with A25G, C28A, A29C, G30C
DNA 1: CAATCTGAATTCCGGTCTCCC
DNA 2: TGGTGGCTACGACGGGATT
B25: UUCCCAC (DNA:RNA)
RNA: B1 RNA with A25U, G26U, A29C, G30A, U31C
DNA 1: CAATCTGAATTCCGGTCTCCC
DNA 2: TGGTGGCTACGACGGGATT
B26: GACUCUG (DNA:RNA)
RNA: B1 RNA with A25G, G26A, C28U, A29C, G30U, U31G
DNA 1: CAATCTGAATTCCGGTCTCCC
DNA 2: TGGTGGCTACGACGGGATT
B27: CGCGCAA (DNA:RNA)
RNA: B1 RNA with A25C, C28G, A29C, G30A, U31A
DNA 1: CAATCTGAATTCCGGTCTCCC
DNA 2: TGGTGGCTACGACGGGATT
B28: GCCCCUA (DNA:RNA)
RNA: B1 RNA with A25G, G26C, A29C, G30U, U31A
DNA 1: CAATCTGAATTCCGGTCTCCC
DNA 2: TGGTGGCTACGACGGGATT
B29: CAAUAUC (DNA:RNA)
RNA: B1 RNA with A25C, G26A, C27A, C28U, G30U, U31C
DNA 1: CAATCTGAATTCCGGTCTCCC
DNA 2: TGGTGGCTACGACGGGATT
B30: UAGUUAG (DNA:RNA)
RNA: B12 RNA with U26A, U27G, C30A, A31G
DNA 1: CAATCTGAATTCCGGTCTCCC
DNA 2: TGGTGGCTACGACGGGATT
B31: UGCACAC (DNA:RNA)
RNA: B1 RNA with A25U, C28A, A29C, G30A, U31C
DNA 1: CAATCTGAATTCCGGTCTCCC
DNA 2: TGGTGGCTACGACGGGATT

Biological target: T1, RBFOX1 RRM
Experiment: EMSA; HiTS-Eq, 1 nM pool, 10 min; buffer printed only for the single-RNA assays: 10 mM Tris pH 7.5, 150 mM NaCl, 3.4 mM EDTA, 0.001% NP-40, 30 C
Conditions: tags: His6 N-terminal (pET28a); label: 5' 32P
In short: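 Purified wild-type or mutant RbFox RRM at increasing concentrations was equilibrated with 1 nM of 5′-radiolabelled RNA carrying 7 randomized nucleotides for 10 min in 50 µL. Unbound RNA was separated by 8% native PAGE and sequenced. Relative association constants came from read-count changes of each RNA species compared with the control reaction, normalised to the cognate motif.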

| Binder | binding signal |
| --- | --- |
| B1 | 0.0119 KA relative to UGCAUGU |
| B2 | 0.0225 KA relative to UGCAUGU |
| B3 | 0.0217 KA relative to UGCAUGU |
| B4 | 0.00632 KA relative to UGCAUGU |
| B5 | 0.0205 KA relative to UGCAUGU |
| B6 | 0.0097 KA relative to UGCAUGU |
| B7 | 0.0144 KA relative to UGCAUGU |
| B8 | 0.0162 KA relative to UGCAUGU |
| B9 | 0.00307 KA relative to UGCAUGU |
| B10 | 0.00762 KA relative to UGCAUGU |
| B11 | 0.00154 KA relative to UGCAUGU |
| B12 | 0.0137 KA relative to UGCAUGU |
| B13 | 0.002 KA relative to UGCAUGU |
| B14 | 0.00419 KA relative to UGCAUGU |
| B15 | 0.00275 KA relative to UGCAUGU |
| B16 | 0.0062 KA relative to UGCAUGU |

| Binder | binding signal |
| --- | --- |
| B17 | 0.00277 KA relative to UGCAUGU |
| B18 | 0.00626 KA relative to UGCAUGU |
| B19 | 0.0195 KA relative to UGCAUGU |
| B20 | 0.00584 KA relative to UGCAUGU |
| B21 | 0.0108 KA relative to UGCAUGU |
| B22 | 0.0226 KA relative to UGCAUGU |
| B23 | 0.0103 KA relative to UGCAUGU |
| B24 | 0.00569 KA relative to UGCAUGU |
| B25 | 0.00624 KA relative to UGCAUGU |
| B26 | 0.0187 KA relative to UGCAUGU |
| B27 | 0.0078 KA relative to UGCAUGU |
| B28 | 0.00549 KA relative to UGCAUGU |
| B29 | 0.000371 KA relative to UGCAUGU |
| B30 | 0.0161 KA relative to UGCAUGU |
| B31 | 0.0137 KA relative to UGCAUGU |
